Data: the supplement of paper PMC6089552
Hit rate of the full screen: of about 3,200 compounds, about 300 (9.4%) showed activity. The entries are a selection whose mix differs from that of the whole data set.

Tested on: A673/TR/shEF
Assay: cell viability (LOESS-normalised, relative to median of negative controls) (log2 ratio); higher = more viable cells (less compound effect), active = hit call of the paper (over 3 MAD below the median)
Conditions: treatment time: 72 h
Method in brief: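 A673/TR/shEF Ewing sarcoma cells were plated at 1,500 per well in 384-well plates and cultured with or without doxycycline, added 24 h before compounds, to induce EWS-FLI1 shRNA knockdown. Library compounds at two or more concentrations, alongside DMSO controls, were applied for three days. Cell viability was measured by CellTiter-Glo luminescence on an Envision reader. Readings were LOESS-corrected per plate, divided by the median of negative controls and log2-transformed, and hits were wells lying at least three median absolute deviations from the median of all screened wells.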

[1] = 0.25 µM, library screen: screen2, EWS-FLI1 expression: high (no doxycycline)
[2] = 0.25 µM, library screen: screen2, EWS-FLI1 expression: low (doxycycline-induced shRNA knockdown)
[3] = 2.5 µM, library screen: screen2, EWS-FLI1 expression: high (no doxycycline)
[4] = 2.5 µM, library screen: screen2, EWS-FLI1 expression: low (doxycycline-induced shRNA knockdown)
[5] = 0.25 µM, library screen: screen1, EWS-FLI1 expression: high (no doxycycline)
[6] = 0.25 µM, library screen: screen1, EWS-FLI1 expression: low (doxycycline-induced shRNA knockdown)
[7] = 2.5 µM, library screen: screen1, EWS-FLI1 expression: high (no doxycycline)
[8] = 2.5 µM, library screen: screen1, EWS-FLI1 expression: low (doxycycline-induced shRNA knockdown)
[9] = 0.103 µM, library screen: screen3, EWS-FLI1 expression: high (no doxycycline)
[10] = 0.103 µM, library screen: screen3, EWS-FLI1 expression: low (doxycycline-induced shRNA knockdown)
[11] = 0.308 µM, library screen: screen3, EWS-FLI1 expression: high (no doxycycline)
[12] = 0.308 µM, library screen: screen3, EWS-FLI1 expression: low (doxycycline-induced shRNA knockdown)
[13] = 0.926 µM, library screen: screen3, EWS-FLI1 expression: high (no doxycycline)
[14] = 0.926 µM, library screen: screen3, EWS-FLI1 expression: low (doxycycline-induced shRNA knockdown)
[15] = 2.8 µM, library screen: screen3, EWS-FLI1 expression: high (no doxycycline)
[16] = 2.8 µM, library screen: screen3, EWS-FLI1 expression: low (doxycycline-induced shRNA knockdown)
[17] = 8.3 µM, library screen: screen3, EWS-FLI1 expression: high (no doxycycline)
[18] = 8.3 µM, library screen: screen3, EWS-FLI1 expression: low (doxycycline-induced shRNA knockdown)
[19] = 25 µM, library screen: screen3, EWS-FLI1 expression: high (no doxycycline)
[20] = 25 µM, library screen: screen3, EWS-FLI1 expression: low (doxycycline-induced shRNA knockdown)

Measured: cell viability (log2)

N=C1Sc2ccccc2C2=NCCCN12
inactive: [1] 0.11 | [2] 0.161 | [3] 0.138 | [4] 0.097

COc1ccc2c(c1)OCc1c-2oc2cc(OC)ccc12
inactive: [5] 0.134 | [6] 0.00532 | [7] 0.0869 | [8] 0.011

Nc1nc(=O)c2nc(CNc3ccc(C(=O)N[C@@H](CCC(=O)O)C(=O)O)cc3)cnc2[nH]1
inactive: [5] 0.0181 | [6] 0.031 | [7] 0.0902 | [8] 0.0775

CC(=O)N[C@@H](CC(C)C)C(=O)O
inactive: [5] 0.043 | [6] 0.0505 | [7] 0.162 | [8] 0.124

COc1c2ccoc2nc2c(OC)c(OCC(O)C(C)(C)O)ccc12 (stereo not given)
inactive: [5] 0.11 | [6] 0.126 | [7] 0.164 | [8] 0.152

O=C(C=Cc1ccccc1)c1ccccc1O
inactive: [5] 0.0713 | [6] 0.0789 | [7] 0.0334 | [8] 0.11

CC(C)NCC(O)COc1ccc(COCCOC(C)C)cc1 (stereo not given)
inactive: [9] 0.137 | [10] 0.0485 | [11] 0.11 | [12] 0.0659 | [13] 0.123 | [14] 0.0385 | [15] 0.115 | [16] 0.0519 | [17] 0.0669 | [18] 0.0189 | [19] 0.102 | [20] 0.122

CN1CC[C@H](c2c(O)cc(O)c3c(=O)cc(-c4ccccc4Cl)oc23)[C@H](O)C1
active: [9] -0.182 | [11] -0.451 | [12] -0.231 | [13] -1.4 | [14] -1.66 | [15] -3.54 | [16] -2.88 | [17] -4.29 | [18] -4.28 | [19] -4.33 | [20] -4.3

CC(N)=O
inactive: [1] 0.0101 | [2] 0.0952 | [3] 0.0948 | [4] 0.186

COc1ccc(-c2cc(=O)c3c(O)cc(O)cc3o2)cc1O
inactive: [5] -0.0193 | [6] -0.536 | [7] -0.0793 | [8] 0.0681

Nc1nc(Cl)nc2c1ncn2[C@@H]1O[C@H](CO)[C@@H](O)[C@@H]1F
active: [15] -0.287 | [17] -1.27 | [19] -3.63 | [20] -0.69

COc1cc2ccc(=O)oc2c(OC)c1OC
inactive: [5] 0.24 | [6] 0.119 | [7] 0.156 | [8] 0.115

Cc1ccc(OC[C@H](O)[C@H](C)NC(C)C)c2c1CCC2
inactive: [1] 0.253 | [2] 0.0742 | [3] 0.147 | [4] 0.115

NCCCC[C@H](N[C@@H](CCc1ccccc1)C(=O)O)C(=O)N1CCC[C@H]1C(=O)O
inactive: [5] 0.105 | [6] 0.00454 | [7] 0.139 | [8] -0.104

CC(C)(C)NC[C@H](O)COc1nsnc1N1CCOCC1
inactive: [5] 0.0613 | [6] 0.0754 | [7] 0.179 | [8] 0.0567

C[C@]12CCC(=O)C=C1CC[C@@H]1[C@@H]2[C@@H](O)C[C@@]2(C)[C@H]1CC[C@]2(O)C(=O)COC(=O)CCC(=O)O
inactive: [5] 0.0211 | [6] 0.0324 | [7] 0.15 | [8] -0.198

Cc1ccc(C(=O)Nc2ccc(CN3CCN(C)CC3)c(C(F)(F)F)c2)cc1C#Cc1cnc2cccnn12
inactive: [9] -0.0141 | [10] 0.111 | [11] -0.0138 | [12] 0.169 | [16] 0.093
active: [13] -0.202 | [15] -0.252 | [17] -0.655 | [18] -0.442 | [19] -1.59 | [20] -1.35
0.218: [14]

CCCCN1CCC(COC(=O)c2cc(Cl)c(N)c3c2OCCO3)CC1
active: [1] -0.151

Oc1ccccc1O
inactive: [1] 0.122 | [2] 0.0415 | [3] 0.0646 | [4] 0.111

COc1cc(OC)c(OC)cc1CN1CCN(Cc2cccnc2)CC1
inactive: [5] 0.0812 | [6] 0.0446 | [7] 0.193 | [8] 0.00403

FC(F)(F)c1ccccc1-n1ccnc1
inactive: [1] 0.165 | [2] 0.0142 | [3] 0.122 | [4] 0.0499

O=C(Cc1cccs1)N[C@@H]1C(=O)N2C(C(=O)[O-])=C(C[n+]3ccccc3)CS[C@H]12
inactive: [5] 0.0672 | [6] 0.063 | [7] 0.0813 | [8] 0.141

CCCCOC(=O)NS(=O)(=O)c1sc(CC(C)C)cc1-c1ccc(Cn2c(CC)nc3c(C)cc(C)nc32)cc1
inactive: [1] 0.0975 | [2] 0.0722 | [3] 0.0232 | [4] 0.0472

COc1cc(-c2coc3cc(O)c(OC)c(O)c3c2=O)cc(O)c1OC
inactive: [5] 0.0734 | [6] 0.118 | [7] 0.0492 | [8] 0.148

CCOC(=O)OC(C)OC(=O)[C@@H]1N2C(=O)[C@@H](NC(=O)[C@H](N)c3ccccc3)[C@H]2SC1(C)C (stereo not given in full)
inactive: [5] 0.122 | [6] 0.134 | [7] 0.137 | [8] 0.183
